The other results are listed elsewhere or left out.

The target in this assay is T1, FOXC2 DBD WT (UniProt Q99958 72-172).
T1 sequence: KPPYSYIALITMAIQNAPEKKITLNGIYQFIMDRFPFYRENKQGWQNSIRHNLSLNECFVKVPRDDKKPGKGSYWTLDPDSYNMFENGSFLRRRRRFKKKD
The assay is described as follows: SELEX-seq (GST pull-down, four rounds, 16-nt random library); pH 7.0; 20 mM HEPES, 140 mM KCl, 0.05 mM TCEP-HCl, pH 7.0, room temperature, 30 min; 2.5 uM GST-FOXC2 DBD, 0.25 uM DNA library; high values mean tight binding. As to conditions: protein: recombinant; tags: N-terminal GST (pGEX-6P-2); dsDNA, one strand shown. The procedure, abridged: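 GST-tagged FOXC2 DNA-binding domain (E. coli-expressed, glutathione-purified) was incubated with a DNA library carrying a 16 bp randomized region, at 0.25 μM DNA and 2.5 μM protein, for 30 min at RT in 20 mM HEPES, 140 mM KCl, 0.05 mM TCEP–HCl, pH 7. Complexes were captured on glutathione Sepharose beads, washed, heat-eluted and PCR-amplified over four rounds. Initial and selected libraries were Illumina MiniSeq sequenced. Relative enrichment came from the Bioconductor SELEX R package.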
As for GAAAAC, the binding signal came to 0.323 relative enrichment.
As for GATATC, the binding signal is 0.45 relative enrichment.
With ATACCG the figure was 0.505 relative enrichment; with GAAATA, 0.451 relative enrichment; with TTTCCG, 0.394 relative enrichment.
With AACCCT the figure was 0.358 relative enrichment; with ATTGAG, 0.341 relative enrichment; with CTTAAC, 0.232 relative enrichment.
With GCCAAT the figure was 0.341 relative enrichment; with TAGTAA, 0.461 relative enrichment; with GATCAA, 0.421 relative enrichment.
Take ACAGGC: the binding signal was found to be 0.353 relative enrichment.
With TACCCA the figure was 0.526 relative enrichment.
In the case of CACGTA, the binding signal was 0.469 relative enrichment.
With CACTTA, the binding signal is 0.321 relative enrichment.
Turning to GTGTTA, the binding signal worked out at 0.281 relative enrichment.
As for CTTGTC, the binding signal was found to be 0.297 relative enrichment.
For ACTTAC the value was 0.359 relative enrichment.
With AGGAAA the figure was 0.351 relative enrichment; with ATAAGG, 0.316 relative enrichment; with AAAGCC, 0.356 relative enrichment.
With TTTAAA the figure was 0.223 relative enrichment.
Take CCGTTA: the binding signal turned out to be 0.306 relative enrichment.
With ATTCAC the figure was 0.416 relative enrichment; with TACGTC, 0.674 relative enrichment.
For AACTCC the value was 0.458 relative enrichment.
With ATTGAC, the binding signal was 0.424 relative enrichment.
For AAGTCT the value was 0.462 relative enrichment.
For ATACAA the value was 0.363 relative enrichment; for TTCTCT, 0.453 relative enrichment; for CCAACA, 0.292 relative enrichment.
Regarding TGCAAA, the binding signal came out at 0.311 relative enrichment.
For ACTCAC, the binding signal amounted to 0.426 relative enrichment.
For ACAGCA the value was 0.332 relative enrichment; for TAACGC, 0.263 relative enrichment.
For ATGTTC, the binding signal came to 0.304 relative enrichment.
CATCCC: the binding signal was 0.704 relative enrichment.
For TCATTC the value was 0.646 relative enrichment.
On to TGATAA, for which the binding signal was 0.425 relative enrichment.
On to ATGAAT, for which the binding signal was found to be 0.377 relative enrichment.
With ATCTCC, the binding signal was determined as 0.613 relative enrichment.
With TCTTTC the figure was 0.55 relative enrichment; with AAGCTT, 0.343 relative enrichment; with GTATTA, 0.304 relative enrichment.
With TCACTA the figure was 0.459 relative enrichment; with ATTTTC, 0.424 relative enrichment.
For TATGCC the value was 0.417 relative enrichment; for CATTAA, 0.286 relative enrichment.
As for GGTTTA, the binding signal came to 0.395 relative enrichment.
For ACTCAT the value was 0.359 relative enrichment.
On to AATCAG, for which the binding signal is 0.409 relative enrichment.
For AACTGA the value was 0.259 relative enrichment.
With TTCAAA the figure was 0.282 relative enrichment; with CCTAAC, 0.341 relative enrichment; with TTTCCA, 0.332 relative enrichment.
With CACTAA the figure was 0.37 relative enrichment.
For CTACTT, the binding signal came to 0.503 relative enrichment.
With CGTCAT the figure was 0.583 relative enrichment; with ATGAAA, 0.388 relative enrichment; with CATAGA, 0.42 relative enrichment.
With CGTCAA the figure was 0.451 relative enrichment.
For TAAACA the value was 0.701 relative enrichment.
Consider ACATGT, for which the binding signal came out at 0.276 relative enrichment.
With ACTACG the figure was 0.563 relative enrichment; with TCTCTA, 0.45 relative enrichment.
For AATTAA the value was 0.385 relative enrichment; for ATTTAG, 0.452 relative enrichment; for GTACAA, 0.338 relative enrichment.
For AAAACC the value was 0.202 relative enrichment; for GTTATA, 0.37 relative enrichment.
Turning to ATCTTA, the binding signal is 0.332 relative enrichment.
For CACAAC the value was 0.243 relative enrichment; for GATAAC, 0.289 relative enrichment.
For CTAGTA the value was 0.562 relative enrichment; for CTCATA, 0.365 relative enrichment.
Turning to CCACAA, the binding signal is 0.292 relative enrichment.
Turning to CTAACT, the binding signal came to 0.332 relative enrichment.
AATATA: the binding signal was found to be 0.31 relative enrichment.
With GCTTTA the figure was 0.43 relative enrichment; with GATATA, 0.288 relative enrichment; with TACTCC, 0.566 relative enrichment.
For ACTAAG the value was 0.424 relative enrichment.
With AATGAC, the binding signal worked out at 0.348 relative enrichment.
With TCTTAA the figure was 0.293 relative enrichment; with TCTTAG, 0.504 relative enrichment; with CACATA, 0.33 relative enrichment.
For TCCTAT the value was 0.313 relative enrichment; for AAGATG, 0.434 relative enrichment.
With CCTTCT the figure was 0.774 relative enrichment; with CATATC, 0.341 relative enrichment; with CCTGTA, 0.318 relative enrichment.
On to GAATAC, for which the binding signal was 0.453 relative enrichment.
With CACTGC the figure was 0.574 relative enrichment; with ACCCTT, 0.488 relative enrichment; with AATAGA, 0.411 relative enrichment.
TTCTTC: the binding signal worked out at 0.673 relative enrichment.
With CTTTAA the figure was 0.3 relative enrichment; with CTATAC, 0.247 relative enrichment.
With GTCAAC the figure was 0.379 relative enrichment; with CAATTC, 0.306 relative enrichment; with CGCAAA, 0.339 relative enrichment.
With CACCAA the figure was 0.346 relative enrichment; with ATTGTG, 0.307 relative enrichment.
CCCGTT: the binding signal came out at 0.334 relative enrichment.
Regarding ACGTTG, the binding signal was found to be 0.237 relative enrichment.
Take ATTGCC: the binding signal stood at 0.483 relative enrichment.
With AATCAA the figure was 0.343 relative enrichment; with AATTTA, 0.211 relative enrichment; with GCATAA, 0.415 relative enrichment.
With CGCGTT the figure was 0.435 relative enrichment.
With ACCAAA the figure was 0.367 relative enrichment; with AGTTTA, 0.403 relative enrichment; with AAACAT, 0.385 relative enrichment.
Consider ATTATG, for which the binding signal was 0.368 relative enrichment.
With AATTCC the figure was 0.366 relative enrichment.
With AAATCT the figure was 0.424 relative enrichment.
For GAACAA the value was 0.355 relative enrichment; for ATACGA, 0.49 relative enrichment.
As for CAACTA, the binding signal amounted to 0.363 relative enrichment.
For ATTCCT the value was 0.377 relative enrichment; for AATAGT, 0.409 relative enrichment; for TCATCT, 0.546 relative enrichment.
With TGCCAA the figure was 0.263 relative enrichment.
With ACTGTA the figure was 0.394 relative enrichment; with ACATGG, 0.511 relative enrichment.

The values are drawn from publication PMC12135187, “A role for pH dynamics regulating transcription factor DNA-binding selectivity”.
